Measurements: the supplement of paper PMC4967469
By IC50 is meant the dose at which the fit gives 50% viability; a limit (>, <) means that the fit lies beyond the doses tested. AUC sums up the same curve from the lowest dose to the 256-fold higher top dose; values near 1 show little effect. The top dose, if marked as inferred, was derived from the fitted curves, not read from the paper.

Legend:
Experiment in all cases: Viability of human cancer cell lines after 72 h of drug (GDSC screen)
QL-XII-47 = compound: C=CC(=O)N1CCc2ccc(-n3c(=O)ccc4cnc5ccc(-c6cnn(C)c6)cc5c43)cc21 [QL-XII-47]; details: top dose 10.24 µM; top dose inferred
Description: (§1)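 Human cancer cell lines in 384-well plates, medium with 10% serum, drug for 72 h over a 256-fold dose range (nine 2-fold or five 4-fold steps up to the top dose). Adherent lines were fixed and stained with the nucleic acid dye Syto60, suspension lines read with resazurin; signal relative to control wells, capped at 0 and 100%. One two-parameter sigmoid per drug and line, fitted in a mixed model over all curves with the slope shared within a line.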

KIN001-266 = compound: CCN1CCC(n2cc(CNc3cc(Cl)c4ncc(C#N)c(Nc5ccc(F)c(Cl)c5)c4c3)nn2)CC1 [KIN001-266]; details: top dose 20 µM; top dose inferred
Description: as §1

BAY 61-3606 = compound: COc1ccc(-c2cc3nccn3c(Nc3ncccc3C(N)=O)n2)cc1OC [BAY 61-3606]; details: top dose 8 µM; top dose inferred
Description: as §1

CCT007093 = compound: O=C1/C(=C/c2cccs2)CC/C1=C\c1cccs1 [CCT007093]; details: top dose 6.6 µM; top dose inferred
Description: as §1

Cell Line | AUC (QL-XII-47) | IC50 (QL-XII-47) [µM] | AUC (KIN001-266) | IC50 (KIN001-266) [µM] | AUC (BAY 61-3606) | IC50 (BAY 61-3606) [µM] | AUC (CCT007093) | IC50 (CCT007093) [µM]
SW1573 (lung adenocarcinoma, adherent) | 0.921 | > 10.2 | 0.973 | > 20 | 0.921 | > 8 | 0.963 | > 6.6
SW1710 (bladder, adherent) | 0.57 | 1 | 0.855 | 16.7 | 0.699 | 1.86 | 0.956 | > 6.6
SW1783 (glioma, adherent) | 0.93 | > 10.2 | 0.885 | 18.1 | 0.928 | > 8 | 0.979 | > 6.6
SW1990 (pancreas, adherent) | 0.969 | > 10.2 | 0.964 | > 20 | 0.883 | > 8 | 0.985 | > 6.6
Saos-2 (osteosarcoma, adherent) | 0.961 | > 10.2 | 0.973 | > 20 | 0.862 | > 8 | 0.981 | > 6.6
SiHa (cervix, adherent) | 0.917 | > 10.2 | 0.982 | > 20 | 0.974 | > 8 | 0.987 | > 6.6
T47D (breast, adherent) | 0.622 | 1.66 | 0.841 | > 20 | 0.915 | > 8 | 0.895 | > 6.6
T84 (large intestine, adherent) | 0.731 | 2.95 | 0.873 | 19.9 | 0.772 | 3.15 | 0.986 | > 6.6
T98G (glioma, adherent) | 0.954 | > 10.2 | 0.895 | > 20 | 0.958 | > 8 | 0.982 | > 6.6
T-24 (bladder, adherent) | 0.747 | 3.14 | 0.87 | 17.2 | 0.924 | > 8 | 0.95 | > 6.6
T-T (oesophagus, adherent) | 0.986 | > 10.2 | 0.85 | 15.1 | 0.599 | 0.934 | 0.968 | > 6.6
TC-71 (Ewing sarcoma, adherent) | 0.858 | 6.24 | 0.835 | 10.2 | 0.989 | > 8 | 0.991 | > 6.6
TCCSUP (bladder, adherent) | 0.779 | 4.8 | 0.867 | > 20 | 0.921 | > 8 | 0.967 | > 6.6
TE-1 (oesophagus, adherent) | 0.8 | 6.56 | 0.927 | > 20 | 0.982 | > 8 | 0.963 | > 6.6
TE-5 (oesophagus, adherent) | 0.808 | 6.32 | 0.973 | > 20 | 0.792 | 4.26 | 0.945 | > 6.6
TE-6 (oesophagus, adherent) | 0.903 | > 10.2 | 0.912 | > 20 | 0.859 | > 8 | 0.938 | > 6.6

Cell Line | AUC (QL-XII-47) | IC50 (QL-XII-47) [µM] | AUC (KIN001-266) | IC50 (KIN001-266) [µM] | AUC (BAY 61-3606) | IC50 (BAY 61-3606) [µM] | AUC (CCT007093) | IC50 (CCT007093) [µM]
TE-8 (oesophagus, adherent) | 0.924 | > 10.2 | 0.881 | > 20 | 0.738 | 2.53 | 0.981 | > 6.6
TE-9 (oesophagus, adherent) | 0.984 | > 10.2 | 0.954 | > 20 | 0.926 | > 8 | 0.984 | > 6.6
TE-10 (oesophagus, adherent) | 0.663 | 1.79 | 0.893 | > 20 | 0.68 | 1.58 | 0.986 | > 6.6
TE-11 (oesophagus, adherent) | 0.92 | > 10.2 | 0.988 | > 20 | 0.968 | > 8 | 0.983 | > 6.6
TE-12 (oesophagus, suspension) | 0.728 | 3.34 | 0.903 | > 20 | 0.505 | 0.519 | 0.978 | > 6.6
TE-15 (oesophagus, suspension) | 0.622 | 1.46 | 0.766 | 8.31 | 0.609 | 1.04 | 0.941 | > 6.6
TGBC1TKB (biliary tract, adherent) | 0.989 | > 10.2 | 0.875 | 19.5 | 0.977 | > 8 | 0.975 | > 6.6
TGBC11TKB (stomach, adherent) | 0.932 | > 10.2 | 0.972 | > 20 | 0.852 | 5.08 | 0.979 | > 6.6
TGBC24TKB (biliary tract, adherent) | 0.906 | > 10.2 | 0.966 | > 20 | 0.99 | > 8 | 0.989 | > 6.6
TGW (neuroblastoma, adherent) | 0.672 | 1.78 | 0.831 | 10.3 | 0.921 | > 8 | 0.992 | > 6.6
THP-1 (acute myeloid leukaemia, suspension) | 0.55 | 0.864 | 0.663 | 3.36 | 0.911 | > 8 | 0.991 | > 6.6
TK10 (kidney, adherent) | 0.469 | 0.519 | 0.809 | 13.2 | 0.799 | 4.81 | 0.978 | > 6.6
TK (B-cell lymphoma, suspension) | 0.758 | 3.26 | 0.857 | 14 | 0.824 | 4.21 | 0.99 | > 6.6
TMK-1 (stomach, adherent) | 0.939 | > 10.2 | 0.912 | > 20 | 0.811 | 4.58 | 0.864 | 6.35
TOV-21G (ovary, adherent) | 0.376 | 0.283 | 0.985 | > 20 | 0.956 | > 8 | 0.945 | > 6.6
